The values that follow come from PubChem BioAssay AID1745853 (National Center for Advancing Translational Sciences (NCATS), 2022).

This is one part of the list. These are further read-outs of the screen, such as a control signal, another cell line or another target. No call is given for them.

Assay in all cases: Primary Screen for Target Class Profiling of Small Molecule Inhibitors of Methyltransferases
In assay [1] the target is Glycine N-methyltransferase (Homo sapiens) (UniProt Q14749). As to conditions: purified enzyme, MTase-Glo SAH luminescence; measured here: GNMT inhibition; at 40 µM; stronger effect = lower value. The procedure, abridged:
(§1)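 Each enzyme was assayed with SAM and its substrate. SAH formation detected by MTase-Glo luminescence; single-point 40 uM screen[…].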

The target of assay [2] is Guanidinoacetate N-methyltransferase (Homo sapiens) (UniProt Q14353). As to conditions: purified enzyme, MTase-Glo SAH luminescence; measured here: GAMT inhibition; at 40 µM; stronger effect = lower value. A digest of the protocol: as §1
For assay [3], the target named is Histamine N-methyltransferase (Homo sapiens) (UniProt P50135). As to conditions: purified enzyme, MTase-Glo SAH luminescence; measured here: HNMT inhibition; at 40 µM; stronger effect = lower value. The procedure, abridged: as §1
For assay [4], the target named is Nicotinamide N-methyltransferase (Homo sapiens) (UniProt P40261). The conditions noted are these: purified enzyme, MTase-Glo SAH luminescence; measured here: NNMT inhibition; at 40 µM; stronger effect = lower value. The procedure, abridged:
as §1

Assay [5] deals with Phenylethanolamine N-methyltransferase (Homo sapiens) (UniProt P11086). As to conditions: purified enzyme, MTase-Glo SAH luminescence; measured here: PNMT inhibition; at 40 µM; stronger effect = lower value. The procedure, abridged:
as §1
On the % scale 0 is the no-effect control and ±100 the full control effect.

Take `COc1cc([C@@H]2c3cc4c(cc3[C@H](O)[C@@H](CO)[C@@H]2C(=O)NC(C)C)OCO4)cc(OC)c1OC`: the activity change, negative = inhibition in assay [1] is -3.92%; in assay [2], -11.1%; in assay [3], -4.17%; in assay [4], -14.5%; in assay [5], -10.7%.
With `Cc1cc(C)cc(N2CCN(c3cc(C4CC(O)C4)ncn3)CC2=O)c1` (stereo not given), the activity change, negative = inhibition in assay [1] is -0.106%; in assay [2] it was 1.27%; in assay [3], 0.692%; in assay [4] it was 0.229%; in assay [5], 0.259%.
The matching figures for `Cc1cc(C)cc(NC(=O)N2CCn3cccc3C2C)c1` (stereo not given): -9.67%, 0.863%, -18.7%, -17.4% and -9.4%.
The matching figures for `CCc1cn(C[C@@H](C(=O)O)N(CC)CC)c(=O)[nH]c1=O`: -1.8%, -2.32%, -1.65%, 2.17% and -4.73%.
In the case of `Cc1ccc(CN2C(=O)c3ccc(-c4ccco4)n3CC2(C)C(=O)NC2CCCCCCC2)o1` (stereo not given), the activity change, negative = inhibition is -5.15% in assay [1]; 0% in assay [2]; 4% in assay [3]; -13.9% in assay [4]; 1.7% in assay [5].
Take `CCn1cc(S(=O)(=O)N2CCOc3ccc(CN4CCCCCC4)cc3C2)cn1`: the activity change, negative = inhibition in assay [1] is -6.81%; in assay [2] it was -6.12%; in assay [3] it was -34%; in assay [4], -6.3%; in assay [5] it was -4.41%.
The like results for `CCOc1ccc(-c2cc3n(n2)CC(C)(C(=O)NC2CCCCC2)N(Cc2ccccn2)C3=O)cc1` (stereo not given) were, in that order, -2.82%, 0.801%, 1.43%, 0.746% and -2.35%.
Take `COc1cccc(CCC(=O)N2CCCC(CN3CCCC3)CC2)c1` (stereo not given): the activity change, negative = inhibition is -4.99% in assay [1]; 1.42% in assay [2]; -28.4% in assay [3]; -4.65% in assay [4]; 11.4% in assay [5].
The matching figures for `COc1ccc(C(=O)Cn2nc3n(C)c(=O)c4ccc(C(=O)NC5CCCC5)cc4n3c2=O)cc1`: 2.32%, 3.7%, 1.07%, -0.994% and 0.313%.
Turning to `COC[C@@H]1CCCN1Cc1cc2cc3c(cc2[nH]c1=O)OCO3`, the activity change, negative = inhibition in assay [1] is -2.83%; in assay [2], -0.448%; in assay [3] it was -1.65%; in assay [4], -0.196%; in assay [5], 9.7%.
The matching figures for `Cc1ccc2oc([C@H]3CCN(C(=O)C4CC4)C3)nc2c1`: -4.07%, -3.42%, -2.63%, -11.6% and -23.2%.
The matching figures for `COc1cccc(NS(=O)(=O)c2cc3c(cc2Cl)n(C)c(=O)n3C)c1`: 1.68%, 0%, -1.29%, 0.852% and 1.31%.
`COc1ccc(N(C(=O)c2ccccc2)S(=O)(=O)c2ccc3c(c2)n(C)c(=O)n3C)cc1`: the activity change, negative = inhibition in assay [1] is -7.48%; in assay [2], 4.37%; in assay [3], -8.56%; in assay [4], -7.9%; in assay [5], -3.6%.
The like results for `c1cc(NCCc2c[nH]c3ccccc23)cc(Nc2ccncc2)c1` were, in that order, -44.1%, -16.6%, -94.4%, -53.3% and -30.9%.
The like results for `CCCCN1C(=O)c2cc(C(=O)NCc3cc(OC)ccc3OC)nn2CC1(C)C(=O)NC1CCCC1` (stereo not given) were, in that order, -1.71%, 0.04%, -1.65%, -8.55% and -4.45%.
The matching figures for `CCCN1C(=O)c2cc(C(=O)NCc3ccc(Cl)cc3)nn2CC1(C)C(=O)NC1CCCC1` (stereo not given): -0.237%, 1.72%, -6.15%, -2.48% and -1.5%.
Turning to `COc1ccc(CCN2CC(NC(=O)Cn3ccc(C)n3)CC2=O)cc1` (stereo not given), the activity change, negative = inhibition is -7.35% in assay [1]; -12.7% in assay [2]; -5.98% in assay [3]; -17.3% in assay [4]; -11.6% in assay [5].
The like results for `CCCN1C(=O)c2c(C(=O)NCCCc3ccccc3)ncn2CC1(C)C(=O)NC1CCCC1` (stereo not given) were, in that order, 0.29%, 0.218%, 1.38%, 4.01% and 6.49%.
The like results for `CCCN1CCN(C(=O)c2cc3n(n2)CC(C)(C(=O)NC2CCCCCC2)N(C)C3=O)CC1` (stereo not given) were, in that order, 2.15%, 1.01%, 0.989%, 0.394% and -2.22%.
The matching figures for `CCOC(=O)c1cc2n(n1)CC(C)(C(=O)NCCC(C)C)N(c1ccccc1C)C2=O` (stereo not given): 4.08%, -38.9%, 4.56%, 8.13% and -0.251%.
With `O=C(Cn1c(=O)n2nc(-c3cccc(F)c3)nc2c2ccccc21)N1CCN(c2ccc(F)cc2)CC1`, the activity change, negative = inhibition in assay [1] was 1.26%; in assay [2] it was 3.15%; in assay [3], -0.681%; in assay [4] it was -1.26%; in assay [5], -1.53%.
The matching figures for `N#Cc1ccc(CN2CCC3(CC(c4cccc(C(F)(F)F)c4)=NO3)C2)cc1` (stereo not given): -5.82%, -7.26%, -2.91%, -9.27% and -12.2%.
The matching figures for `CCC/C=C/c1cc2c(C=O)c(O)c(CC=C(C)C)cc2o1`: -4.69%, -15.3%, 3.79%, -41.5% and -13.7%.
On to `Cc1nn(CCO)cc1CN1CCC2(CC1)C(C(=O)O)CC(=O)N2C` (stereo not given), for which the activity change, negative = inhibition was -2.31% in assay [1]; -5.37% in assay [2]; 1.85% in assay [3]; -0.545% in assay [4]; 2.72% in assay [5].
In the case of `CC(C)c1cc(C(=O)N2Cc3ccc(CN4CCN(C)CC4)cc3C2)c(O)cc1O`, the activity change, negative = inhibition in assay [1] is -3.41%; in assay [2] it was -4.6%; in assay [3], -32%; in assay [4], -23%; in assay [5], -3.37%.
The matching figures for `COc1ccc(CCNC(=O)CCc2nnc3n(Cc4ccccc4)c(=O)c4ccccc4n23)cc1OC`: -11.5%, 0%, 8.28%, -7.47% and 1.65%.
The like results for `Cc1cnc(CCNC(=O)c2ccc(C#N)cc2)n1C1CC1` were, in that order, -3.6%, -8.03%, -12.3%, -9.68% and -10.6%.
As to `O=C(Nc1ccc(=O)n2c1[C@@H]1C[C@@H](CN(C(=O)COc3ccccc3)C1)C2)c1ccccc1`, the activity change, negative = inhibition is -5.42% in assay [1]; -4.62% in assay [2]; -3.13% in assay [3]; -8.05% in assay [4]; -5.58% in assay [5].
Regarding `CN1CCC(COc2cnc(-c3cccc(Cn4nc(-c5cccc(C#N)c5)ccc4=O)c3)nc2)CC1`, the activity change, negative = inhibition in assay [1] is -5.54%; in assay [2], 11.6%; in assay [3] it was -41.9%; in assay [4], -18.5%; in assay [5], -1.57%.
Regarding `Cc1cccc(CSc2nnc3n(CCCOC(C)C)c(=O)c4ccccc4n23)c1`, the activity change, negative = inhibition in assay [1] is -7.18%; in assay [2], 0%; in assay [3], -2.14%; in assay [4], -7.98%; in assay [5], 1.9%.
The like results for `Cc1ccc(OCC(=O)NCc2c(C)ncc3c2CCNC3)cc1C` were, in that order, -1.38%, 0.71%, -3.45%, -1.79% and -2.41%.
